A compilation of properties of binary mixtures (doi:10.1016/j.molliq.2010.03.018)
The densities may have been worked out from excess volumes.

Assay: xn = mol fraction of the nth substance listed
Details: 101 kPa

CCOCC(C)O (stereo not drawn) + CCCC[n+]1ccn(C)c1.F[P-](F)(F)(F)(F)F
mass density [kg/m3]
Details | x1 = 0.0532 | x1 = 0.172 | x1 = 0.255 | x1 = 0.3298 | x1 = 0.5031 | x1 = 0.6555 | x1 = 0.8423 | x1 = 0.9 | x1 = 0.9474
288.15 K | 1362.3 | 1330 | 1305.3 | – | 1214 | – | – | – | –
298.15 K | 1353.8 | 1321.6 | 1296.8 | 1272.2 | 1205.2 | 1132.7 | – | 978.1 | 939.6
308.15 K | 1345.6 | 1313.5 | – | 1263.8 | 1196.6 | 1124 | 1011.3 | 968.8 | –

COCC(C)O (stereo not drawn) + CCCC[n+]1ccn(C)c1.F[P-](F)(F)(F)(F)F
mass density [kg/m3]
Details | x1 = 0.0426 | x1 = 0.126 | x1 = 0.2396 | x1 = 0.4116 | x1 = 0.5071 | x1 = 0.6847 | x1 = 0.8536 | x1 = 0.9447
288.15 K | 1367.2 | 1349.1 | 1321.9 | – | 1237.5 | 1158.5 | – | 981
298.15 K | 1358.7 | 1340.6 | 1313.5 | – | 1228.7 | 1149.6 | 1046.3 | 971.6
308.15 K | 1350.4 | – | 1305 | 1254.4 | 1220 | 1140.6 | – | 962.1

COCCOCCO + CCCC[n+]1ccn(C)c1.F[P-](F)(F)(F)(F)F
mass density [kg/m3]
Details | x1 = 0.1008 | x1 = 0.2217 | x1 = 0.3398 | x1 = 0.4582 | x1 = 0.519 | x1 = 0.6876 | x1 = 0.8005 | x1 = 0.8758 | x1 = 0.9136
288.15 K | – | 1329.3 | 1300.4 | 1267.7 | 1249 | 1190 | – | – | 1082
298.15 K | 1347.3 | – | 1291.9 | 1259.1 | – | 1181.6 | 1133.2 | 1094.9 | 1073.2
308.15 K | 1339 | 1312.7 | 1283.7 | 1250.8 | 1232.1 | – | – | 1086.2 | 1064.5
